Sequences and labels used below:
B1: LINE1-mini (parent)
chain: GGCAGAGCUCAACACAGCGUGGCAAAGUGGCUGUGGCUAGACUGCC

Read counts are not given, so values of variants with three or more changes are uncertain.

Variants of B1 are the subject of this data set. Put plainly: self-cleavage, relative activity (ratio to wild type); higher = more cleavage; in vitro, sequencing; the parent is a self-cleaving ribozyme.
GUUAGUGUUCAACACAGCGUGGCAAAGUGGCUGUGGCUAGACUGCA [G2U C3U A6U C8U C46A]: the self-cleavage was 1.65. As to GUCAGAGAUCAAAACAGCUUGGCAAAGUGGCUGUGGCAAGACUGCC [G2U C8A C13A G19U U38A], the self-cleavage turned out to be 0.22. The figure for GUAUGACCUCAAGACAGCGUGGCAAAGUGGCUGUGGCUAGACUGCC [G2U C3A A4U G7C C13G] is 0.1; for GUGAGAGCUCAACACAGCGGGGCAAAUUGGCUGUGGCUAGACUGCC [G2U C3G U20G G27U] it is 0.29. Turning to GUAAGAGCUUAACACAGCGUGGCAGAUUGGCUGUGGCUAUACUGCC [G2U C3A C10U A25G G27U G40U], the self-cleavage was found to be 0.05. For GUCAGAGAUCAACACAGCGUGGUAAAGUGGCUGUGGCUAGACUGCC [G2U C8A C23U] the value was 0.09. For the variant GUUAGAGCUCAACACAGCGUGGCAAGGUGGCUGUGGGUAUACUGCA [G2U C3U A26G C37G G40U C46A], the self-cleavage is 0.05. Consider GUCAGAGAUCAACACAGCGUGGCAAAGUGACUGUGGCUAGACUGGC [G2U C8A G30A C45G], for which the self-cleavage was determined as 0.06. GUCAGAGUUCAACGCAGCGUGGCAAAGCUGCUGAGGUUAGACUGCC [G2U C8U A14G U28C G29U U34A C37U]: the self-cleavage came to 0.03. With GUCAGAGUUCAACACAGCGUGGCAAACUGGCUGUGGCUAGACUGCC [G2U C8U G27C], the self-cleavage came to 0.04. For GUAAGAGCUCAACAUAGCGUGGUAAAGUGGUUGUGGCUAGACUGAC [G2U C3A C15U C23U C31U C45A] the value was 0.03; for GUCAGAGCUAAACACAGCGUGACAAAUUGGCUGUGGCUAGACUGAC [G2U C10A G22A G27U C45A], 0.01; for GUUAGAGCUCGACACAGCGUGGCUAAGUGGCUGUGGCUAGACUGCC [G2U C3U A11G A24U], 0.03. Take GUAAGAGCUCAACACAGCGUGGCAAAGUGGCUGCGGCUAGACUGCC [G2U C3A U34C]: the self-cleavage worked out at 0.08. The figure for GUAAGGGCUCAACACAGCGUAACAAAGUGGCUGUGGCUAAACUGCC [G2U C3A A6G G21A G22A G40A] is 0.02. For GUCAGAGCUAAACACAGCGUGGCAAAGUGGGUGUGUCUAGACUGCC [G2U C10A C31G G36U] the value was 0.01; for GUAAGAGCUCAACACAGCGUGGCAAAGUGGCUGUGGCUAGAGUGCC [G2U C3A C42G], 0.03.

Regarding GUAAGAGCUCAACACAGCGUGGCAAAGUGGCUGUGGAUAGACUGCC [G2U C3A C37A], the self-cleavage is 0.24.

GUCAGAGAUCAAAACAGCGUGGCACAGUAUGUGUGGCUAGACUGCC [G2U C8A C13A A25C G29A G30U C31G]: the self-cleavage is 0.06. The figure for GUCAGAGUUCAACACAGCGCGGCAAAGUGGCUGUGGCUAUACUGCC [G2U C8U U20C G40U] is 0.02; for GUCAGAGCUAUACACAGCGUGGCAAAGCGGCUGUGGCUAGACUGCU [G2U C10A A11U U28C C46U] it is 0. Consider GUCAGAGAGCAACACAGCUUGGCAUAGCGGCUGUGGCUAGACUGCC [G2U C8A U9G G19U A25U U28C], for which the self-cleavage came out at 0.08.

Turning to GUCAGAGUUCAACACAGCGUGGCAAAGUGGCUGUGGCAAGACUGCC [G2U C8U U38A], the self-cleavage worked out at 0.02. For GUCAGAGGUCAACACAACGUGGCAAAGUGGCUGUGGCUAGACUGCC [G2U C8G G17A] the value was 0.01. GUCAGAGUUCAACACAGCGUGGCAAAGUUGCUGUGUCUAGACUGCC [G2U C8U G29U G36U]: the self-cleavage came out at 0.04. The figure for GUAAGAGCUCAAAACAGGGUGGCAAACUGGCUGUGGCUAGACGGCC [G2U C3A C13A C18G G27C U43G] is 0.06; for GUCAGAGUUCAACACAGCGUGCCAAAGUGGCGGUGGCUUGACUGCC [G2U C8U G22C U32G A39U] it is 0.03. For GUCAGAGCUAAACACAGCGUGGCAAAGUGGCUGUGGCUAGACUGCG [G2U C10A C46G] the value was 0; for GUAACAGCUUAACACAGCGUGCCAAAGUAGCUCUGGCUAGACUGCC [G2U C3A G5C C10U G22C G29A G33C], 0.03; for GUAAGAGCUCAACACAGGGUCGCAAAGUCGCUGUGGCUAAACUGCC [G2U C3A C18G G21C G29C G40A], 0.04. Take GUGAGCGCUCAACACAGUGUGCCAAGGUGGCUGUGGCUAGACUGCC [G2U C3G A6C C18U G22C A26G]: the self-cleavage was determined as 0.08. For GUUAGAGCUCAACACAGCGUGGCAAAGUGGCUGUGGCUAGACUGCU [G2U C3U C46U] the value was 0.16; for GUCAGAGGUCAACACAGCGUGGCAAAGUUGCUGUGGCUAGACUGCC [G2U C8G G29U], 0.01.

On to GUAAGAGCUCAACACAGGGUGGCAAGGUGACUGUGGCUAGGCUGCC [G2U C3A C18G A26G G30A A41G], for which the self-cleavage worked out at 0.02. The figure for GUCAGAGCUCAACACAGCGUGGCAAAGUGGCUGUGGCUAGGCUGUC [G2U A41G C45U] is 0.03; for GUAAGAGCUCAAUACAGCGUGGCAAAGUGGCUGUGGCUAGACUUCU [G2U C3A C13U G44U C46U] it is 0.24; for GUCAGAGGUCAACACAGCGUGCCAAAGUGGCUGUGGGUAGACUGCC [G2U C8G G22C C37G] it is 0.01.

As to GUCAGAGUUCAACACAGCGUGGCAAAGUGGCAGUGGCUAGGCUGCC [G2U C8U U32A A41G], the self-cleavage was found to be 0.05. On to GUCAGAGUUCAACACAGCGUGGCAUAGUGGCUGUCGCUAGACUACC [G2U C8U A25U G35C G44A], for which the self-cleavage was 0.07. For the variant GUAAGUGUUCAACACAGCGAGGCAAAGGGGCUGAGCCUAGACUGCC [G2U C3A A6U C8U U20A U28G U34A G36C], the self-cleavage is 0.05. In the case of GUAAGAGCUCAACACAGCGUGGCAAAGUGGCUGUGGCUAUACUGCC [G2U C3A G40U], the self-cleavage is 0.08. The figure for GUCAGAGGUCAACACAGCGUGGCAAAGUGGAUGUUGCUAGACUACC [G2U C8G C31A G35U G44A] is 0.05; for GUCAGAGUUCAACACAGCGUGGCAAUGUGGCUGCGGCUGGACUGCC [G2U C8U A26U U34C A39G] it is 0.03. For GUAAGAGCACAACACAGCGUGGCAAAGUGGCUGUCGCUUGGCUGCC [G2U C3A U9A G35C A39U A41G] the value was 0.09; for GUGAGAGCUCAACGCAGCGUGGCAAAGUGGCUGUGGCUAGACUGCC [G2U C3G A14G], 0.09; for GUAAGAGCUCAACACAGCGUGGCAAAGUGGCUUUGGCUAGACUGCC [G2U C3A G33U], 0.05. The figure for GUCAGAGAUCAUGACAGCGUGGCAAAGUGGCUGAGGCUAGACUGCC [G2U C8A A12U C13G U34A] is 0.05; for GUCAGAGUUCAUCACAGCGUGGCAAAGUUGCUGUGGCUAGACUGCC [G2U C8U A12U G29U] it is 0.03. Take GUAAGAGCUCAACACAGCGUAGCAAGGUGGCUGUGGCUAGACUCCC [G2U C3A G21A A26G G44C]: the self-cleavage is 1.17. Turning to GUUAGAGCUCAACACAGCGUAGCAAAGUUGCUGUGGCUAGACUGCC [G2U C3U G21A G29U], the self-cleavage stood at 0.57. With GUAUGAGCUCAAUACAGCUUGGCAAAGUGGCUGUGGCUAGACUGCC [G2U C3A A4U C13U G19U], the self-cleavage was found to be 0.37. For GUAAGAGCUCAACACAGCGUGGCAAAGUGGCUGUGGCUAGAGUGCA [G2U C3A C42G C46A] the value was 0.05; for GUUAGAGCUCAACACUGCGUGGCCAAGUGGCUGUGGCUAGACUGCC [G2U C3U A16U A24C], 0.03; for GUGAGACCUCAACACAGGAUGGCAAAGUGGCCGUGGCUAGACUGCC [G2U C3G G7C C18G G19A U32C], 0.1. GUCAGAGGUUAACACAGCGUGGCAAAGUGUCUGUGGCUAGACUGCC [G2U C8G C10U G30U]: the self-cleavage was found to be 0.02. The figure for GUCAGAGCUAAACACAGCGUGGCAAAAUGGCUGUAGCUAGACUGCC [G2U C10A G27A G35A] is 0.01.

Values taken from the RNAGym collection of RNA variant scans (doi:10.7554/elife.90254).
